Assay results as given in the supplement of paper PMC4967469.
Lines with a small IC50 respond at low doses; a fit beyond the top or the lowest dose is shown as a bound at that dose. The AUC spans the tested range (256-fold, ending at the top dose) of the same fit: 1 means no effect, lower means more sensitive. For some assays here: A top dose marked as inferred was calculated from the reported fits. For some assays here: Where an entry number is given, a second screen of the drug exists; the two often differ.

Tests used:
Experiment in all cases: Viability of human cancer cell lines after 72 h of drug (GDSC screen)
[1] = compound: CCNC(=O)c1noc(-c2cc(C(C)C)c(O)cc2O)c1-c1ccc(CN2CCOCC2)cc1 [AUY922]; conditions: top dose 0.256 µM; top dose inferred
Method: (§1)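 Human cancer cell lines in 384-well plates, medium with 10% serum, drug for 72 h over a 256-fold dose range (nine 2-fold or five 4-fold steps up to the top dose). Adherent lines were fixed and stained with the nucleic acid dye Syto60, suspension lines read with resazurin; signal relative to control wells, capped at 0 and 100%. One two-parameter sigmoid per drug and line, fitted in a mixed model over all curves with the slope shared within a line.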

[2] = compound: Cc1ccc(Nc2cc(-c3cccc(N4C(=O)c5ccccc5C4=O)c3)ncn2)cc1NS(C)(=O)=O [KIN001-270]; conditions: top dose 20 µM; top dose inferred
Method: as §1

[3] = compound: O=S(=O)(c1ccccc1)N(CC(F)(F)F)c1ccc(C(O)(C(F)(F)F)C(F)(F)F)cc1 [T0901317]; conditions: top dose 10.24 µM; top dose inferred
Method: as §1

[4] = compound: NC(=O)c1cccc(-c2cc(Nc3ccc(OC(F)(F)F)cc3)ncn2)c1 [GNF-2]; conditions: top dose 1.28 µM; top dose inferred
Method: as §1

[5] = compound: Nc1ccn([C@@H]2O[C@H](CO)[C@@H](O)C2(F)F)c(=O)n1 [Gemcitabine]; conditions: top dose 1.024 µM
Method: as §1

[6] = compound: S=C(NCc1ccc2c(c1)OCO2)N1CCN(c2ncnc3c2oc2ccccc23)CC1 [MP470]; conditions: top dose 20 µM; top dose inferred
Method: as §1

[7] = compound: Cc1cn(-c2cc(NC(=O)c3ccc(C)c(Nc4nccc(-c5cccnc5)n4)c3)cc(C(F)(F)F)c2)cn1 [Nilotinib]; conditions: top dose 2 µM
Method: as §1

[8] = compound: C/C(O)=C(\C#N)C(=O)Nc1cc(Br)ccc1Br [LFM-A13]; conditions: top dose 16 µM; top dose inferred
Method: as §1

[9] = compound: CC(C)c1ccccc1Cc1cc(C(=O)Nc2ccc(S(=O)(=O)c3ccccc3C(C)(C)C)cc2)c(O)c(O)c1O [TW-37]; conditions: top dose 5 µM
Method: as §1

[10] = compound: CC(O)(CS(=O)(=O)c1ccc(F)cc1)C(=O)Nc1ccc(C#N)c(C(F)(F)F)c1 [Bicalutamide]; conditions: top dose inferred
Method: as §1

[11] = top dose 1.024 µM, screen: GDSC drug entry 150
[12] = top dose 10 µM, screen: GDSC drug entry 1502

Cell Line | AUC [1] | IC50 [1] [µM] | AUC [2] | IC50 [2] [µM] | AUC [3] | IC50 [3] [µM] | AUC [4] | IC50 [4] [µM] | AUC [5] | IC50 [5] [µM] | AUC [6] | IC50 [6] [µM] | AUC [7] | IC50 [7] [µM] | AUC [8] | IC50 [8] [µM] | AUC [9] | IC50 [9] [µM] | AUC [10, 11] | IC50 [10, 11] [µM] | AUC [10, 12] | IC50 [10, 12] [µM]
KS-1 (glioma, adherent) | 0.391 | 0.00744 | 0.95 | > 20 | 0.98 | > 10.2 | 0.973 | > 1.28 | 0.355 | 0.0229 | 0.452 | 0.898 | 0.98 | > 2 | 0.924 | > 16 | 0.533 | 0.392 | 0.98 | > 1.02 | 0.968 | > 10
KURAMOCHI (ovary, adherent) | 0.62 | 0.0361 | 0.984 | > 20 | 0.984 | > 10.2 | 0.969 | > 1.28 | 0.894 | > 1.02 | 0.981 | > 20 | 0.984 | > 2 | 0.969 | > 16 | 0.721 | 1.48 | 0.984 | > 1.02 | 0.982 | > 10
KY821 (leukaemia, suspension) | 0.729 | 0.0645 | 0.99 | > 20 | 0.987 | > 10.2 | 0.992 | > 1.28 | 0.944 | > 1.02 | 0.902 | > 20 | 0.991 | > 2 | 0.992 | > 16 | 0.893 | 4.6 | 0.992 | > 1.02 | 0.991 | > 10
L-363 (myeloma, suspension) | 0.594 | 0.0279 | 0.974 | > 20 | 0.968 | > 10.2 | 0.987 | > 1.28 | 0.618 | 0.128 | 0.441 | 0.884 | 0.964 | > 2 | 0.987 | > 16 | 0.556 | 0.434 | 0.99 | > 1.02 | 0.977 | > 10
L-428 (Hodgkin lymphoma, suspension) | 0.665 | 0.0433 | 0.992 | > 20 | 0.968 | > 10.2 | 0.99 | > 1.28 | 0.437 | 0.044 | 0.948 | > 20 | 0.993 | > 2 | 0.981 | > 16 | 0.747 | 1.44 | 0.993 | > 1.02 | 0.992 | > 10
L-540 (Hodgkin lymphoma, suspension) | 0.866 | 0.187 | 0.979 | > 20 | 0.957 | > 10.2 | 0.99 | > 1.28 | 0.164 | 0.00712 | 0.99 | > 20 | 0.972 | > 2 | 0.984 | > 16 | 0.421 | 0.194 | 0.987 | > 1.02 | 0.97 | > 10
L-1236 (Hodgkin lymphoma, suspension) | 0.799 | 0.102 | 0.988 | > 20 | 0.99 | > 10.2 | 0.985 | > 1.28 | 0.417 | 0.0393 | 0.946 | > 20 | 0.992 | > 2 | 0.992 | > 16 | 0.397 | 0.171 | 0.992 | > 1.02 | 0.992 | > 10
LAMA-84 (chronic myeloid leukaemia, suspension) | 0.627 | 0.036 | 0.971 | > 20 | 0.944 | > 10.2 | 0.586 | 0.138 | 0.445 | 0.0452 | 0.837 | 13.7 | 0.038 | < 0.00781 | 0.973 | > 16 | 0.489 | 0.291 | 0.985 | > 1.02 | 0.964 | > 10
LAN-6 (neuroblastoma, adherent) | 0.792 | 0.141 | 0.976 | > 20 | 0.978 | > 10.2 | 0.985 | > 1.28 | 0.926 | > 1.02 | 0.902 | > 20 | 0.984 | > 2 | 0.974 | > 16 | 0.423 | 0.184 | 0.984 | > 1.02 | 0.972 | > 10
LB373-MEL-D (melanoma, adherent) | 0.868 | 0.224 | 0.975 | > 20 | 0.983 | > 10.2 | 0.967 | > 1.28 | 0.815 | 0.547 | 0.946 | > 20 | 0.99 | > 2 | 0.988 | > 16 | 0.746 | 1.56 | 0.99 | > 1.02 | 0.989 | > 10
LB771-HNC (head and neck, adherent) | 0.98 | > 0.256 | 0.973 | > 20 | 0.973 | > 10.2 | 0.962 | > 1.28 | 0.87 | > 1.02 | 0.815 | 14.7 | 0.928 | > 2 | 0.955 | > 16 | 0.453 | 0.225 | 0.981 | > 1.02 | 0.964 | > 10
LB831-BLC (bladder, adherent) | 0.615 | 0.0334 | 0.845 | 14.7 | 0.97 | > 10.2 | 0.972 | > 1.28 | 0.364 | 0.0267 | 0.973 | > 20 | 0.981 | > 2 | 0.984 | > 16 | 0.636 |  | 0.984 | > 1.02 | 0.985 | > 10
